# The shares of active, inactive and inconclusive entries below differ from those in the screen. For some of these results: Potencies of inconclusive entries are left out as doubtful fits. For some of these results: A note “side channel” means that the fit belongs to a control or component signal, not to the main read-out. The source made the active and inactive calls. Unless noted, calls follow the shape of the full dose curve.
# What was measured:
# [1] = target: Estrogen receptor (Homo sapiens) (UniProt P03372); test: qHTS assay for small molecule agonists of estrogen receptor alpha signaling (AID 588514); conditions: ER-alpha-UAS-bla HEK293, beta-lactamase ratio, 18 h; activation: at 76.8 µM (top of the series), percent of full estradiol response, vehicle zero; also: nearly all actives have a fitted effect of over 70% in size; also: potency is read from the fitted curve at half-maximal effect;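 as to activation: 0% = vehicle only and 100% = reference agonist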
# Chain of UniProt P03372 (P03372 whole entry, looked up): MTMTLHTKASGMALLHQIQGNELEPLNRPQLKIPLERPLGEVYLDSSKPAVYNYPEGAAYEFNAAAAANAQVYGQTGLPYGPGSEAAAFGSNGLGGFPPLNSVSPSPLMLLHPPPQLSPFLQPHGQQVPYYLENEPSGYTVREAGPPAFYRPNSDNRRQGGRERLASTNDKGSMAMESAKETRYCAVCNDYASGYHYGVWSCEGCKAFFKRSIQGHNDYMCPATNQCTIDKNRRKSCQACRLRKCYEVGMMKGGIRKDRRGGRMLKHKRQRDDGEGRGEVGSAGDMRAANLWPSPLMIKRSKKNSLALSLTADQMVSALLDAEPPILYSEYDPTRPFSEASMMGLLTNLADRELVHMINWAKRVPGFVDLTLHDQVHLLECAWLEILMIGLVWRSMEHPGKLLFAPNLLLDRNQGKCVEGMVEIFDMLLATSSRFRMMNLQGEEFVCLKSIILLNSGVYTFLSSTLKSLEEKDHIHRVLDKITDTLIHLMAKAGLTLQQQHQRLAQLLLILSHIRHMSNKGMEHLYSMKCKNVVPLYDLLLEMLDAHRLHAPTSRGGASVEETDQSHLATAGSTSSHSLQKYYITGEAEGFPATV
# Summary of the method: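 Fluorescence from CCF4 cleavage reports ER-alpha-driven beta-lactamase expression in HEK 293 cells treated 18 hrs at 37 C. Data normalized to 17-beta-estradiol (20 nM) and DMSO, fitted to Hill equation.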
# [2] = target: Glucocorticoid receptor (Homo sapiens) (UniProt P04150); test: qHTS assay for small molecule agonists of glucocorticoid receptor signaling (AID 588532; active = well fitted curve in the direction sought with a large enough effect in the signal ratio, with a control signal flat; inconclusive = small, poorly fitted or top-dose-only effect, or a change in a side signal; inactive = no such curve, though single readings can be large or run the other way; the % refers to the signal ratio;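 also: 100% = dexamethasone at 0.1 µM and 0% = DMSO only wells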); conditions: HeLa MMTV-bla, beta-lactamase ratio, agonist, 18 h; activation: hits give high values, percent of dexamethasone control, DMSO zero
# Summary of the method: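 Quantitative HTS using CellSensor MMTV-bla HeLa cells in charcoal/dextran-treated serum; compounds tested up to 92 uM. After 18 h at 37 C, CCF4 dye reported reporter induction.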
# [3] = target: Glucocorticoid receptor (Homo sapiens) (UniProt P04150); test: qHTS assay for small molecule antagonists of glucocorticoid receptor signaling (AID 588533; active = well fitted inhibition curve with a large enough effect in the signal ratio, with a control signal flat, not every such curve was filed as active; inconclusive = small, poorly fitted or top-dose-only effect, or effect the other way, or a change in a side signal; the % refers to the signal ratio;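 also: cells stimulated with 2 nM dexamethasone as agonist; % is scaled to controls: 0 for no effect and ±100 for the full control effect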); conditions: HeLa MMTV-bla, GRE beta-lactamase ratio, antagonist mode, 18 h; activity change, negative = inhibition: at 76.8 µM (top of the series) unless noted
# [4] = target: Voltage-gated inwardly rectifying potassium channel KCNH2 (Homo sapiens) (UniProt Q12809); test: qHTS Assay for Small Molecule Inhibitors of the Human hERG Channel Activity (AID 588834; active = well fitted curve in the direction sought with a large enough effect; inconclusive = small, poorly fitted or top-dose-only effect, or another doubt; inactive = no such curve, though single readings can be large; an effect the other way counts as inactive or inconclusive;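 also: top concentration of the series differs between compounds; % is scaled to controls: 0 for no effect and ±100 for the full control effect; lower thallium flux fluorescence means stronger hERG block; nearly all actives have a fitted effect of over 50% in size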); conditions: U2OS BacMam hERG, FluxOR thallium flux fluorescence; at 92.2 µM (top of the series)
# Chain of UniProt Q12809 (Q12809 whole entry, looked up): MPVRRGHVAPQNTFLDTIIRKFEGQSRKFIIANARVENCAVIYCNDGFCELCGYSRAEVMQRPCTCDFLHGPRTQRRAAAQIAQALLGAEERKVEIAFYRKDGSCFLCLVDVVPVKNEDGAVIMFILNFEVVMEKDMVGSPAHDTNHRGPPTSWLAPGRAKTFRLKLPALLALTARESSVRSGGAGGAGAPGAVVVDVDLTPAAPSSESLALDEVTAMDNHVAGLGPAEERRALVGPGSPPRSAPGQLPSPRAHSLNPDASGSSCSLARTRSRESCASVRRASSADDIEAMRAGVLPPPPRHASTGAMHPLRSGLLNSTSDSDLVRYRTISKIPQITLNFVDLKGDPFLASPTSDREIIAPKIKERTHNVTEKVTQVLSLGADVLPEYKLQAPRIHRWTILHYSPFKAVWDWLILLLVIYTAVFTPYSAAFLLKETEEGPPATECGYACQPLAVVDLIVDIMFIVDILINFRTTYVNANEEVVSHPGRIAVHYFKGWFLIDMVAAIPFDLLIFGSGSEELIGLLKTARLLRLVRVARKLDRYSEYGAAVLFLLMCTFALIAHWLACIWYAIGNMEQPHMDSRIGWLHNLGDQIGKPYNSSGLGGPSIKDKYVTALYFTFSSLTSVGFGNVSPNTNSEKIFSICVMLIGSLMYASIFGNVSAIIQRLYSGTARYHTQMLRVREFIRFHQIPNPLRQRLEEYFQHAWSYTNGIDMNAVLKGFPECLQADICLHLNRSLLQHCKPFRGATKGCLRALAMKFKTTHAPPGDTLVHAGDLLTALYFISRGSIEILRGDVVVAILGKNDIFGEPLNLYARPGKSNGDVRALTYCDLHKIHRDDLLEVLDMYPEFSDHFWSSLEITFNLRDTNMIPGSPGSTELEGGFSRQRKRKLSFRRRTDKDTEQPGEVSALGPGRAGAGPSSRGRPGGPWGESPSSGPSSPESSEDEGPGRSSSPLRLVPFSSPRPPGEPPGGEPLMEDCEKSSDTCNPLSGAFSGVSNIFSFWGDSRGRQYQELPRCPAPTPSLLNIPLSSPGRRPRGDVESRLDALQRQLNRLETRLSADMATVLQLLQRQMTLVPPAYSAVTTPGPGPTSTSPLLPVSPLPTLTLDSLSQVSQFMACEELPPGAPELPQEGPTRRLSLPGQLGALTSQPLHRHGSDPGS
# Summary of the method: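 In hERG-transduced U2OS cells, dye-loaded for 1 hr at room temperature in dark, test compounds incubated 10 min at 37 °C before thallium stimulation. AC50 values derived by Hill modelling of concentration-response.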
# [5] = qHTS assay for small molecule agonists of the antioxidant response element (ARE) signaling pathway (AID 651741; active = well fitted activation curve with a large enough effect in the signal ratio; inconclusive = small, poorly fitted or top-dose-only effect, or effect the other way, or a change in a side signal; the % refers to the signal ratio; also: potency is read from the fitted curve at half-maximal effect; as to activation: % of control where 0% means no effect); conditions: HepG2 ARE-bla reporter, beta-lactamase FRET ratio, 16 h; activation: at 96 µM (top of the series) unless noted
# Summary of the method: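 Agonist activity is measured as ARE-driven beta-lactamase expression in a stable HepG2 reporter line, using 16 h compound treatment at 37 C and a FRET substrate fluorescence readout after 2 h.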
# [6] = qHTS assay to identify small molecules that stimulate interleukin-8 (IL-8) secretion (AID 651758; active = well fitted activation curve with a large enough effect in the signal ratio; inconclusive = small, poorly fitted or top-dose-only effect, or effect the other way, or a change in a side signal; the % refers to the signal ratio; also: 0% is about no effect); conditions: HTRF ratio (665/615); activation: at 92.2 µM (top of the series)
# Summary of the method: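 Secreted IL-8 measured homogeneously by TR-FRET (two labelled anti-IL-8 antibodies, 1-3 h at room temperature) after a 16 h, 37 C compound treatment of THP-1 cells at 2000 cells/well.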
# [7] = target: Peroxisome proliferator-activated receptor gamma (Homo sapiens) (UniProt P37231); test: qHTS assay for small molecule agonists of peroxisome proliferator-activated receptor gamma signaling (AID 588536; active = well fitted curve in the direction sought with a large enough effect in the signal ratio, with a control signal flat, not every such curve was filed as active; inconclusive = small, poorly fitted or top-dose-only effect, or effect the other way, or a change in a side signal; inactive = no such curve, though single readings can be large or run the other way; the % refers to the signal ratio;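 also: 0% = DMSO basal wells and 100% = rosiglitazone at 2 µM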); conditions: HEK293 PPARg-UAS-bla, beta-lactamase ratio, 16 h; activation: at 76.7 µM (top of the series), percent of rosiglitazone response, DMSO as zero unless noted
# Chain of UniProt P37231 (P37231 whole entry, looked up): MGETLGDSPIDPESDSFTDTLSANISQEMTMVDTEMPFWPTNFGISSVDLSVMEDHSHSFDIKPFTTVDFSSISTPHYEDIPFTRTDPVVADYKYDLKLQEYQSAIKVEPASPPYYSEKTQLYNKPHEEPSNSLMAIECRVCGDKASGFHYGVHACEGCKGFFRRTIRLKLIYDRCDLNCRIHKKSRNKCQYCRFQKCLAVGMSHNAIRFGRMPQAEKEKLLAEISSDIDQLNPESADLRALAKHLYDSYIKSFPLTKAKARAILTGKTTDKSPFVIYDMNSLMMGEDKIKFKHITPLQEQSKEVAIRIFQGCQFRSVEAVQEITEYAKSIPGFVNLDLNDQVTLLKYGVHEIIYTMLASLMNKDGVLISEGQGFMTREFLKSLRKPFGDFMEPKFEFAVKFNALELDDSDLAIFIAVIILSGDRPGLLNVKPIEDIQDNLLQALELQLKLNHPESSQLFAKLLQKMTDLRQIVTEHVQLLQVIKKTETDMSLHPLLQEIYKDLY
# Summary of the method: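 Compound treatment: 16 h, 37 C, HEK293 GeneBLAzer cells. Detection: CCF4, 2 h RT. Values: Hill-fit EC50, efficacy as % of 2 uM rosiglitazone.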
# [8] = target: Thyroid hormone receptor beta (Homo sapiens) (UniProt P10828); test: qHTS assay for small molecule antagonists of thyroid hormone receptor beta signaling (AID 588547; active = well fitted inhibition curve with a large enough effect in the signal ratio, with a control signal flat, not every such curve was filed as active; inconclusive = small, poorly fitted or top-dose-only effect, or effect the other way, or a change in a side signal; the % refers to the signal ratio; also: potency is read from the fitted curve at half-maximal effect;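 as to activity change % (negative = inhibition): cells stimulated with 0.4 nM T3 agonist during compound exposure; % is scaled to controls: 0 for no effect and ±100 for the full control effect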); conditions: TR-UAS-bla HEK293, beta-lactamase ratio, antagonist mode, 18 h
# Chain of UniProt P10828 (P10828 whole entry, looked up): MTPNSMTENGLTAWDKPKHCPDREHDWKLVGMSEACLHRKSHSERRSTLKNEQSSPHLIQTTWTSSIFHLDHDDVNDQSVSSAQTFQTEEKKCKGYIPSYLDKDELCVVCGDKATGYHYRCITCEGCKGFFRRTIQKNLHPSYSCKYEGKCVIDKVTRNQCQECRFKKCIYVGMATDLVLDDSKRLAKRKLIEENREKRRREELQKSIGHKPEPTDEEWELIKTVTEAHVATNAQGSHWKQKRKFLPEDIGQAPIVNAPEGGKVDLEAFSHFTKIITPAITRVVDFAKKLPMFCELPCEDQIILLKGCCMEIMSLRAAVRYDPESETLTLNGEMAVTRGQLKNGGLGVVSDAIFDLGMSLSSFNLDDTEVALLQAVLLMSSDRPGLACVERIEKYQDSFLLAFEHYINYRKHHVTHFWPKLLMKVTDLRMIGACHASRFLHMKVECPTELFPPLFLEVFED
# Summary of the method: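 Inhibition of T3-driven (0.4nM final) beta-lactamase reporter activity was measured over 0.59 nM to 92 uM compound after 18 h at 37 C. The cells were GripTite HEK293 TR-UAS-bla in charcoal/dextran-stripped serum, with CCF4 ratio read-out and IC50 from Hill fits.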
# [9] = target: Peroxisome proliferator-activated receptor gamma (Homo sapiens) (UniProt P37231); test: qHTS assay for small molecule antagonists of peroxisome proliferator-activated receptor gamma signaling (AID 588537; active = well fitted inhibition curve with a large enough effect in the signal ratio, with a control signal flat, not every such curve was filed as active; inconclusive = small, poorly fitted or top-dose-only effect, or effect the other way, or a change in a side signal; the % refers to the signal ratio;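 also: reporter cells co-stimulated with 50 nM rosiglitazone agonist during compound treatment; % of control where 0% means no effect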); conditions: HEK293 PPARg-UAS-bla, beta-lactamase ratio, antagonist mode; activity, negative = inhibition: at 76.8 µM (top of the series)
# Summary of the method: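 Cell-based beta-lactamase assay; GW9662 served as the antagonist control. Stimulation used rosiglitazone, final 50 nM, 16 h, 37 C.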
# [10] = qHTS assay for small molecule agonists of the antioxidant response element (ARE) signaling pathway measured by Nrf2-dependant transcriptional activity (AID 720636; active = well fitted curve in the direction sought with a large enough effect in the repeat runs; inconclusive = weak or mixed curves; inactive = no such curve, though single readings can be large; an effect the other way counts as inactive or inconclusive; also: potency is read from the fitted curve at half-maximal effect)
# Summary of the method: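 Nrf2-dependent transcription is measured in ARE-luc HepG2 cells: compound is applied for 16 hr at 37 C after a 6 hr attachment period, and luciferase activity is quantified by luminescence using ONE-Glo.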
# [11] = target: Retinoic acid receptor RXR-alpha (Homo sapiens) (UniProt P19793); test: qHTS assay for small molecule agonists of retinoid X receptor alpha signaling (AID 588544); conditions: HEK293T RXRa-UAS-bla, beta-lactamase reporter, 18 h; activation: at 76.7 µM (top of the series) unless noted;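 also: 0% = DMSO basal wells and 100% = reference agonist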
# Chain of UniProt P19793 (P19793 whole entry, looked up): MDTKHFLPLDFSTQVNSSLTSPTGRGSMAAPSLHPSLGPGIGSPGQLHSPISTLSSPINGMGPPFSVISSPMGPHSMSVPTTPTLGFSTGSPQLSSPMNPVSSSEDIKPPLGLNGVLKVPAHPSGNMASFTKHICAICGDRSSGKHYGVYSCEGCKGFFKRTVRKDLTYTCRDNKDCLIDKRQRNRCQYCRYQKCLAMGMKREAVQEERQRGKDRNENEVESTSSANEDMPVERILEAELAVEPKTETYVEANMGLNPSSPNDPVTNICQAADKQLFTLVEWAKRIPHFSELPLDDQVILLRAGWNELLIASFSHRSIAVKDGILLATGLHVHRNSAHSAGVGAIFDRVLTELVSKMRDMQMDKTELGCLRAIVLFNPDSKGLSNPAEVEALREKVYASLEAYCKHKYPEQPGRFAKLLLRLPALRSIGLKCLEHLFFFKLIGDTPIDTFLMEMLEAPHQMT
# [12] = target: Thyroid hormone receptor beta (Homo sapiens) (UniProt P10828); test: qHTS assay for small molecule agonists of thyroid hormone receptor beta signaling (AID 588545); conditions: TR-UAS-bla GripTite HEK 293, beta-lactamase ratio, agonist mode, 18 h; activation: at 76.7 µM, percent of T3 response, DMSO as zero
# Summary of the method: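 HEK 293 TR-UAS-bla; agonist mode; 18 hrs, 37 C; CCF4, ex 405/em 460 and 530 nm; norm. T3 10 nM = 100%, DMSO = 0%; Hill fit → EC50, efficacy.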
# [13] = target: Bile acid receptor (Homo sapiens) (UniProt Q96RI1); test: qHTS assay for small molecule antagonists of farnesoid X receptor signaling (AID 588526); conditions: HEK293T FXR-UAS-bla, beta-lactamase ratio, antagonist mode; activity change, negative = inhibition: at 76.7 µM (top of the series); also: potency is read from the fitted curve at half-maximal effect
# Summary of the method: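 Beta-lactamase reporter antagonist mode: HEK293T FXR-UAS-bla cells, titrated compound, CDCA stimulation, 16 h 37 C, CCF4 dye 2 h RT. Data normalized to CDCA 50 uM and DMSO; Hill-fit IC50.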
# [14] = qHTS assay for small molecule activators of the nuclear factor-kappa B (NF-kB) signaling pathway (AID 651749; active = well fitted activation curve with a large enough effect in the signal ratio; inconclusive = small, poorly fitted or top-dose-only effect, or a change in a side signal; the % refers to the signal ratio; also: % of control where 0% means no effect); conditions: NF-kB-bla ME-180 cells, beta-lactamase FRET ratio, 16 h; activation: hits give high values
# Summary of the method: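 FRET-based beta-lactamase detection in ME-180 cells reports NF-kB response-element-driven transcription following overnight (16 hr) compound treatment.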
# Tags tell the direction and shape of the fitted curve or compound fluorescence and quenching.
smiles,measurement,setting,value
CCCBr,Potency,[1],active: 0.355 µM
same,activation,[2],inactive: -1.9%
same,Potency,[3],inactive
same,"activity change, negative = inhibition",[4],inactive: 8.69%
same,Potency,[5],"inconclusive [activator, partial curve]"
same,Potency,[6],inactive
O=S(=O)(c1ccc(O)cc1)c1ccc(O)cc1,Potency,[1],active: 14.1 µM
same,Potency,[3],inactive
same,Potency,[7],inactive
same,activity change % (negative = inhibition),[8],inactive: 5%
same,Potency,[5],"inconclusive [activator, partial curve]"
CNC(=O)/C=C(\C)OP(=O)(OC)OC,activation,[1],inconclusive: 81.2%
same,"activity change, negative = inhibition",[3],inconclusive: 2.06%
same,Potency,[9],inactive
same,Potency,[10],"inconclusive [activator, full curve, poor fit]"
CCOP(=S)(OCC)Oc1nc(Cl)n(C(C)C)n1,Potency,[1],"inconclusive [side channel, rising, single point]"
same,activation,[2],inactive: 12.9%
same,"activity change, negative = inhibition",[3],inconclusive: -9.96%
same,Potency,[9],inactive
same,activation,[11],inconclusive: 25.6%
same,activity change % (negative = inhibition),[8],inconclusive: -8.53%
COC(=O)c1sccc1S(=O)(=O)NC(=O)Nc1nc(C)nc(OC)n1,activation,[1],inconclusive: 96.3%
same,"activity change, negative = inhibition",[3],inconclusive: 12.4%
same,activation,[12],inactive: -15.4%
same,Potency,[8],"inconclusive [cytotoxic, side channel, full curve, poor fit]"
same,Potency,[5],inactive
Cc1ccc2cc3c(ccc4ccccc43)c3c2c1CC3,activation,[1],inconclusive: 9.07%
same,Potency,[13],"inconclusive [falling, partial curve]"
same,Potency,[5],active: 2.17 µM
same,activation,[14],inconclusive: 3.74%
same,Potency,[10],"inconclusive [activator, full curve, poor fit]"

# — PubChem BioAssay (NCATS)
